The supplement of paper PMC8728848
This is one part of the list.

Columns and labels:
Test in all cases: glycan array binding signal (z-score within array); higher = stronger binding
Conditions in all cases: glycan notation: IUPAC condensed, linker removed
Gal(b1-3)GalNAc(b1-3)Gal = target: Gal(b1-3)GalNAc(b1-3)Gal
Procedure, shortened: (§1)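 The Consortium for Functional Glycomics database supplied 3228 glycan arrays, of which those lacking an available protein sequence were dropped. The binding signal, a within-array Z-score, was averaged across arrays of the same protein sequence and across linkers. Negative scores can be read as non-binding.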

[1] = target: Gal(b1-3)GalNAc(b1-3)Gal(a1-4)Gal(b1-4)Glc
Procedure, shortened: as §1

[2] = target: Gal(b1-3)GalNAc(b1-4)Gal(b1-4)Glc
Procedure, shortened: as §1

[3] = target: Gal(b1-3)GalNAc(b1-4)[Neu5Ac(a2-3)]Gal(b1-4)Glc
Procedure, shortened: as §1

Gal(b1-3)GlcNAc = target: Gal(b1-3)GlcNAc
Procedure, shortened: as §1

[4] = target: Gal(b1-3)GlcNAc(a1-3)Gal(b1-4)GlcNAc
Procedure, shortened: as §1

[5] = target: Gal(b1-3)GlcNAc(a1-6)Gal(b1-4)GlcNAc
Procedure, shortened: as §1

Gal(b1-3)GlcNAc(b1-2)Man = target: Gal(b1-3)GlcNAc(b1-2)Man
Procedure, shortened: as §1

[6] = target: Gal(b1-3)GlcNAc(b1-2)Man(a1-3)[Gal(b1-3)GlcNAc(b1-2)Man(a1-6)]Man(b1-4)GlcNAc(b1-4)GlcNAc
Procedure, shortened: as §1

[7] = target: Gal(b1-3)GlcNAc(b1-2)Man(a1-3)[Gal(b1-3)GlcNAc(b1-2)Man(a1-6)]Man(b1-4)GlcNAc(b1-4)[Fuc(a1-6)]GlcNAc
Procedure, shortened: as §1

[8] = target: Gal(b1-3)GlcNAc(b1-2)Man(a1-3)[GlcNAc(b1-4)][Gal(b1-3)GlcNAc(b1-2)Man(a1-6)]Man(b1-4)GlcNAc(b1-4)GlcNAc
Procedure, shortened: as §1

[9] = target: Gal(b1-3)GlcNAc(b1-2)[Gal(b1-3)GlcNAc(b1-6)]Man(a1-6)[Gal(b1-3)GlcNAc(b1-2)Man(a1-3)]Man(b1-4)GlcNAc(b1-4)GlcNAc
Procedure, shortened: as §1

[10] = target: Gal(b1-3)GlcNAc(b1-3)Gal(b1-3)GlcNAc
Procedure, shortened: as §1

[11] = target: Gal(b1-3)GlcNAc(b1-3)Gal(b1-4)Glc
Procedure, shortened: as §1

[12] = target: Gal(b1-3)GlcNAc(b1-3)Gal(b1-4)GlcNAc
Procedure, shortened: as §1

[13] = target: Gal(b1-3)GlcNAc(b1-3)Gal(b1-4)GlcNAc(b1-2)Man(a1-3)[Gal(b1-3)GlcNAc(b1-3)Gal(b1-4)GlcNAc(b1-2)Man(a1-6)]Man(b1-4)GlcNAc(b1-4)GlcNAc
Procedure, shortened: as §1

[14] = target: Gal(b1-3)GlcNAc(b1-3)Gal(b1-4)GlcNAc(b1-2)[Gal(b1-3)GlcNAc(b1-3)Gal(b1-4)GlcNAc(b1-6)]Man(a1-6)[Gal(b1-3)GlcNAc(b1-3)Gal(b1-4)GlcNAc(b1-2)Man(a1-3)]Man(b1-4)GlcNAc(b1-4)[Fuc(a1-6)]GlcNAc
Procedure, shortened: as §1

[15] = target: Gal(b1-3)GlcNAc(b1-3)Gal(b1-4)GlcNAc(b1-3)Gal(b1-4)GlcNAc(b1-2)[Gal(b1-3)GlcNAc(b1-3)Gal(b1-4)GlcNAc(b1-3)Gal(b1-4)GlcNAc(b1-6)]Man(a1-6)[Gal(b1-3)GlcNAc(b1-3)Gal(b1-4)GlcNAc(b1-3)Gal(b1-4)GlcNAc(b1-2)Man(a1-3)]Man(b1-4)GlcNAc(b1-4)[Fuc(a1-6)]GlcNAc
Procedure, shortened: as §1

[16] = target: Gal(b1-3)GlcNAc(b1-3)Gal(b1-4)GlcNAc(b1-6)[Gal(b1-3)GlcNAc(b1-3)]Gal(b1-4)Glc
Procedure, shortened: as §1

[17] = target: Gal(b1-3)GlcNAc(b1-3)Gal(b1-4)[Fuc(a1-3)]GlcNAc
Procedure, shortened: as §1

[18] = target: Gal(b1-3)GlcNAc(b1-3)Gal(b1-4)[Fuc(a1-3)]GlcNAc(b1-6)[Gal(b1-3)GlcNAc(b1-3)]Gal(b1-4)Glc
Procedure, shortened: as §1

[19] = target: Gal(b1-3)GlcNAc(b1-3)GalNAc
Procedure, shortened: as §1

[20] = target: Gal(b1-3)GlcNAc(b1-6)Gal(b1-4)GlcNAc
Procedure, shortened: as §1

[21] = target: Gal(b1-3)GlcNAc(b1-6)GalNAc
Procedure, shortened: as §1

[22] = target: Gal(b1-3)GlcNAc(b1-6)[Gal(b1-3)]GalNAc
Procedure, shortened: as §1

Gal(b1-3)GlcNAc6S = target: Gal(b1-3)GlcNAc6S
Procedure, shortened: as §1

[23] = target: Gal(b1-3)[Fuc(a1-4)]GlcNAc
Procedure, shortened: as §1

[24] = target: Gal(b1-3)[Fuc(a1-4)]GlcNAc(b1-2)Man
Procedure, shortened: as §1

[25] = target: Gal(b1-3)[Fuc(a1-4)]GlcNAc(b1-2)Man(a1-3)[Gal(b1-3)[Fuc(a1-4)]GlcNAc(b1-2)Man(a1-6)]Man(b1-4)GlcNAc(b1-4)[Fuc(a1-6)]GlcNAc
Procedure, shortened: as §1

[26] = target: Gal(b1-3)[Fuc(a1-4)]GlcNAc(b1-3)Gal(b1-3)[Fuc(a1-4)]GlcNAc
Procedure, shortened: as §1

[27] = target: Gal(b1-3)[Fuc(a1-4)]GlcNAc(b1-3)Gal(b1-4)[Fuc(a1-3)]GlcNAc
Procedure, shortened: as §1

[28] = target: Gal(b1-3)[Fuc(a1-4)]GlcNAc(b1-6)GalNAc
Procedure, shortened: as §1

[29] = target: Gal(b1-3)[GlcNAc(b1-6)]GalNAc
Procedure, shortened: as §1

[30] = target: Gal(b1-3)[Neu5Ac(a2-6)]GalNAc
Procedure, shortened: as §1

[31] = target: Gal(b1-3)[Neu5Ac(a2-6)]GlcNAc(b1-4)Gal(b1-4)Glc
Procedure, shortened: as §1

[32] = target: Gal(b1-3)[Neu5Ac(b2-6)]GalNAc
Procedure, shortened: as §1

Gal(b1-4)Gal = target: Gal(b1-4)Gal
Procedure, shortened: as §1

[33] = target: Gal(b1-4)GalNAc(a1-3)[Fuc(a1-2)]Gal(b1-4)GlcNAc
Procedure, shortened: as §1

B1: SRA-1 (Homo sapiens), P21757 (protein)
chain: MEQWDHFHNQQEDTDSCSESVKFDARSMTALLPPNPKNSPSLQEKLKSFKAALIALYLLVFAVLIPLIGIVAAQLLKWETKNCSVSSTNANDITQSLTGKGNDSEEEMRFQEVFMEHMSNMEKRIQHILDMEANLMDTEHFQNFSMTTDQRFNDILLQLSTLFSSVQGHGNAIDEISKSLISLNTTLLDLQLNIENLNGKIQENTFKQQEEISKLEERVYNVSAEIMAMKEEQVHLEQEIKGEVKVLNNITNDLRLKDWEHSQTLRNITLIQGPPGPPGEKGDRGPTGESGPRGFPGPIGPPGLKGDRGAIGFPGSRGLPGYAGRPGNSGPKGQKGEKGSGNTLTPFTKVRLVGGSGPHEGRVEILHSGQWGTICDDRWEVRVGQVVCRSLGYPGVQAVHKAAHFGQGTGPIWLNEVFCFGRESSIEECKIRQWGTRACSHSEDAGVTCTL
- glycan array binding signal (z-score) (Gal(b1-3)GalNAc(b1-3)Gal): -0.217
- glycan array binding signal (z-score) [1]: -0.308
- glycan array binding signal (z-score) [2]: -0.023
- glycan array binding signal (z-score) [3]: 0.043
- glycan array binding signal (z-score) (Gal(b1-3)GlcNAc): -0.526
- glycan array binding signal (z-score) [4]: -0.203
- glycan array binding signal (z-score) [5]: 0.583
- glycan array binding signal (z-score) (Gal(b1-3)GlcNAc(b1-2)Man): 0.295
- glycan array binding signal (z-score) [6]: -0.418
- glycan array binding signal (z-score) [7]: 0.296
- glycan array binding signal (z-score) [8]: 0.092
- glycan array binding signal (z-score) [9]: 0.749
- glycan array binding signal (z-score) [10]: -0.283
- glycan array binding signal (z-score) [11]: -0.665
- glycan array binding signal (z-score) [12]: -0.507
- glycan array binding signal (z-score) [13]: -0.061
- glycan array binding signal (z-score) [14]: -0.049
- glycan array binding signal (z-score) [15]: 0.654
- glycan array binding signal (z-score) [16]: -0.037
- glycan array binding signal (z-score) [17]: -0.389
- glycan array binding signal (z-score) [18]: -0.2
- glycan array binding signal (z-score) [19]: -0.184
- glycan array binding signal (z-score) [20]: -0.096
- glycan array binding signal (z-score) [21]: -0.483
- glycan array binding signal (z-score) [22]: 0.088
- glycan array binding signal (z-score) (Gal(b1-3)GlcNAc6S): -0.195
- glycan array binding signal (z-score) [23]: 0.065
- glycan array binding signal (z-score) [24]: -0.243
- glycan array binding signal (z-score) [25]: -0.28
- glycan array binding signal (z-score) [26]: -0.113
- glycan array binding signal (z-score) [27]: -0.44
- glycan array binding signal (z-score) [28]: -0.059
- glycan array binding signal (z-score) [29]: -0.048
- glycan array binding signal (z-score) [30]: -0.29
- glycan array binding signal (z-score) [31]: -0.502
- glycan array binding signal (z-score) [32]: -0.296
- glycan array binding signal (z-score) (Gal(b1-4)Gal): -0.166
- glycan array binding signal (z-score) [33]: 0.256
